# From the supplement of paper PMC11417369
# The other results are listed elsewhere or left out.
# Tested on: PfHDP1 homeodomain (GST-tagged)
# Experiment: gcPBM binding intensity (ln(normalized median fluorescence intensity)); higher = stronger DNA binding
# In short: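 GST-tagged P. falciparum DNA-binding domains, expressed in E. coli (about 25 μg on average), were applied for 1 h to an Agilent 4 × 180k array of primer-extended double-stranded 36-bp intergenic genomic probes plus negative controls. The binding buffer was 1× PBS with 1% milk, 0.2 mg/ml BSA, 0.5% salmon testes DNA and 0.03% Triton X-100. Bound protein was detected with Alexa488 anti-GST antibody and scanned at 488 nm. Binding intensity is the highest Masliner-normalised natural-log median intensity across replicate spots of either probe orientation.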
row,Sequence,gcPBM binding intensity (ln)
1,ATTTATGTTATTGTATGTACACAATATAATGTTATT [XGTACX_site5657],6.56
2,ATTCTACACGCACATACACACATATAAATATAAATA [CACACA_site7582],8.16
3,ACACAAAAATAGTTTTTTATATTGTTAACCTTATAT [XGTACX_negctrl_site123],6.58
4,ATAATATATATGAAATGTACATAAATTTAATGCGAC [XGTACX_site5394],7.45
5,ATATTTTACATATTTGCACACATATATTTAAATACA [CACACA_site4628],10.3
6,TAAAAAGTACATTATTCATGGCCTATTACATTTTTT [GTGCAC_negctrl_site282],6.41
7,AAAAAAAAAAAATGTGCACACGCGTACAGACAAAAA [CACACA_site2005],9.43
8,ATTTATATTTTTTAATGTACATTTATATGTATACAA [XGTACX_site4555],6.82
9,CGATATTCTAAGGATAGTACATAATAAAATAGAGTA [XGTACX_site4224],6.46
10,TAAAATAGAAATATATGTACATATATATATGTATAT [XGTACX_site4134],6.4
11,TTTTTATTCAACAAAAATATCAAACATAATTATAAA [CACACA_negctrl_site616],6.86
12,AATATTTATATTTACACACACATAATACATATATGT [CACACA_site33],6.55
13,ATATACAACTAAAGAACACACATCATTGTTCATTGG [CACACA_site3681],6.42
14,ATTTTTATGTCTTTCTATAAATCGAAAATATACATA [CACACA_negctrl_site477],6.29
15,TTCCTTTAACCCTGCACACATACATACATTTATATG [CACACA_site3953],8.51
16,AAAAAACGCACTCGTACACACATATTTTCTTTCTAA [CACACA_site3089],7.18
17,AATATTTACCAGAAAATAAAAATATGTATATATATA [CACACA_negctrl_site351],7.56
18,TTAATTACACAAAAAAGTACTTGATATTGTTTATTA [XGTACX_site3449],6.18
19,ATATAATCAACTGCAAAGGTTTAAAAGGAAAAAATA [CACACA_negctrl_site989],6.43
20,TCCTTAGAAATATTGATCATAAACTGGAAAGGTATA [XGTACX_negctrl_site354],6.39
21,TGTATTATTAATATTTGTACGTAATAATAAAAACAT [XGTACX_site3716],6.51
22,TGGAAACAAAAACACACACACAAAAAAAAAAAAAAA [CACACA_site3209],6.27

row,Sequence,gcPBM binding intensity (ln)
1,GAAATATATAAATTGACACACACATATATACATATA [CACACA_site8323],6.58
2,ATTCAAAATAATCACAGTACACATGAGATTATCTTT [XGTACX_site2197],6.23
3,TAATTTCTTATGTATTGTACAAATAATATATTATTT [XGTACX_site3066],6.9
4,TTATTGAAAAACATAATATCTAAGAGGGTAATATAT [GTGCAC_negctrl_site599],6.4
5,ACTTCATAAACATTTTGTACGTATGTATCTTTTTAT [XGTACX_site7012],6.75
6,TTAATATGGAAATGTTGTACATTTCTTGAAGCATTC [XGTACX_site525],6.11
7,ATTATCCATGCATTTACACACACACTAATAAAAATT [CACACA_site9358],7.54
8,CATAAATACAGATATACACACATATATATATATATA [CACACA_site4528],9.33
9,TTTAACATAAATTAAACACACAATAAAATACATTAA [CACACA_site6699],6.6
10,ATAATACATATAGAAGGTACACTATTATTTTCCTGA [XGTACX_site903],6.13
11,GAGGTACATTAATTAGTGCATTAAAATTTTTATCCT,9.85
12,ATATAGTAAATGTTCACACATACAAATATATATATA [CACACA_site5518],8.53
13,AAGTTTTCTTAAAGCTGTACTTTTTAAAAATAAAAT [XGTACX_site7716],5.87
14,AATGATACTTAGGGGCATGTCTCTGGGGGCATAACC [CACACA_negctrl_site591],6.63
15,ATATATTTCTGTCAAGCACACATAATATTAATATAT [CACACA_site7993],6.74
16,TATATATAATTATAAGAACACACATATATATATATA [CACACA_site8786],9.14
17,TACAAATATAGATGCACACACATATAGGTATATGTG [CACACA_site7439],8.78
18,GTTATAAACAAAATAAATATATGAATATATAATAAT [XGTACX_negctrl_site96],6.21
19,CATATTATATTTTCATGTACACATAACATATTTATA [XGTACX_site4787],6.68
20,TTAAAAAAAAAAAAAAGTACATAAGTATATATAATA [XGTACX_site4295],6.08
21,CATATTTTTTCTTAAACACACACATATATATATATA [CACACA_site8920],9.12
22,TAAAAGGGGATATATGAACACACAAAAAAAAAATAT [CACACA_site8940],6.79

row,Sequence,gcPBM binding intensity (ln)
1,TATATATATATGTACACACACACATATAAATAAATA [CACACA_site443],8.71
2,TAAATGTTTCTCAAAAGTACACATGTGATATTTCTT [XGTACX_site2065],6.19
3,ATATTAAGTTTTATTACACACTCTCAATTTTTATTT [CACACA_site4206],6.63
4,TAAATATATATATATTGTACAAAACAAATGTGAATT [XGTACX_site696],7.1
5,TTAAAAATATTATGTACACACATTTTAGATATTTGT [CACACA_site1846],6.23
6,TAATTAAAATCATATACACACCCATATATATATATA [CACACA_site8524],9.35
7,TCCTAATATTTGTCAAATTTCAAAATAAATAAAATG [XGTACX_negctrl_site540],6.36
8,AATAGAATAATCCTTACACACACACGCGCACGAATA [CACACA_site6365],7.12
9,ATTTTATTTTTTTGTGATAATTGATTTATATATTGT [TGCATGCA_negctrl_site563],6.6
10,TATATATTACATTGTTGTACATATATATTATATATA [XGTACX_site60],6.23
11,ATTATTTCTTTGTGATGTACAAATAAACATGTTGGT [XGTACX_site5636],6.54
12,AATACAATAAAATAGTGTACATATATATTATGTATA [XGTACX_site8258],6.47
13,ATATATATATATATTTGTACGTATTATGTATTTTTT [XGTACX_site3530],9.09
14,TTAAAATATGATATATGTACATAATTACTAAAAACA [XGTACX_site276],6.65
15,TTTATATTATACTATACATGCATATAATAAAGGTCA [TGCATGCA_site934],6.36
16,GAATAAATTAAAAACGCATGTATCATTACTACATAA [TGCATGCA_site111],6.16
17,AAAGCACCCAGGCACACACACAAAGGAAAAGAAAAA [CACACA_site232],6.32
18,ATAATTATTAAGAGAACATGCAAAATATATATGTTT [TGCATGCA_site503],6.68
19,ATATATATTTCTTAAAGTACATAATAATAAAAATAT [XGTACX_site8981],6.47
20,TTTTTTTCTTGTTTTAAATAATATACTGGAAAAAAA [CACACA_negctrl_site585],6.01
21,TTTTTTTTTTTGTGGGTGCGTTTATAAAAACAGGAA,6.95
22,AGAGAGAAAGTTATAACATGCAACAATTTTTAGAAC [TGCATGCA_site96],7

row,Sequence,gcPBM binding intensity (ln)
1,AATATATACATATATTGTACATATAGTTTCTTGCAT [XGTACX_site7871],6.29
2,TTTCCATATTGTGGATGTACGTTTTGAGGTTTTTAC [XGTACX_site3362],6.15
3,TTTTAATAAACAAAACGTACACATTATTATTATATA [XGTACX_site335],6.19
4,TTTGTAGTTTGCACATGTACACATTTCAAAATAAAG [XGTACX_site7568],10.7
5,GGGTTCAATTTAAAGAGTACAAAAAATGTAGGTCAT [XGTACX_site5290],6.43
6,TATTATGCCTTTAATATACACACTAATATTTTTTTG [CACACA_site2045],6.61
7,ATTTATCCAAAAAAATGTACAGGATAATTTGTTCAT [XGTACX_site7737],6.34
8,CATAATACCTATAACACACACAATTATACATAAACT [CACACA_site7506],6.68
9,TATAAAAATTAATATTGTACGTTTTATGAAAATAAA [XGTACX_site8237],6.13
10,TACACCCACCAACACACACACACACCCAAAAAAAAA [CACACA_site498],7.04
11,AACATACATAAACACACACACACACCCACACCCACA [CACACA_site8058],6.88
12,TTTATATATTTATTCACACATATAATATTCCGTCGT [CACACA_site6120],6.58
13,TTTATGAAACAGTGCACACATAAAAATATATACATA [CACACA_site2992],10.1
14,AACTTTATACTTTTTTGTACTTAACCCTTACATTTT [XGTACX_site5798],7.05
15,TAGATAAATGGGTATACACACATATACATAAATATA [CACACA_site375],6.51
16,GTAAGATTTCTTGTTGCATGCGGTAAAAAGTAAAAT [TGCATGCA_site469],7.18
17,TAACGCATGAATATAATATATATATATATAAAAATA [GTGCAC_negctrl_site218],6.58
18,ATTGTATGCACGTCTGCACACTTTTTTTTTTTTTTT [CACACA_site2082],11
19,GTTAATTGAAGATTCACACATAAATATATATATAAT [CACACA_site5482],6.48
20,ATAATTCTAAATAAATGTACACACAAAAATAAATGT [XGTACX_site3547],6.73
21,TATAGATGTATGTACATACACACATATATAAATAAA [CACACA_site1789],6.68
22,TGTTAATTTATATTATGTACTTATAATTATCGTTTG [XGTACX_site1032],6.4
